Article PMC6983858
Results are given in words; binding and its absence hold for the method and conditions named. Some entries that bind do so weakly or less than the wild type.

T1: neurofibromin EF fragment (1821–2818) (human) (UniProt P21359)
T1 sequence: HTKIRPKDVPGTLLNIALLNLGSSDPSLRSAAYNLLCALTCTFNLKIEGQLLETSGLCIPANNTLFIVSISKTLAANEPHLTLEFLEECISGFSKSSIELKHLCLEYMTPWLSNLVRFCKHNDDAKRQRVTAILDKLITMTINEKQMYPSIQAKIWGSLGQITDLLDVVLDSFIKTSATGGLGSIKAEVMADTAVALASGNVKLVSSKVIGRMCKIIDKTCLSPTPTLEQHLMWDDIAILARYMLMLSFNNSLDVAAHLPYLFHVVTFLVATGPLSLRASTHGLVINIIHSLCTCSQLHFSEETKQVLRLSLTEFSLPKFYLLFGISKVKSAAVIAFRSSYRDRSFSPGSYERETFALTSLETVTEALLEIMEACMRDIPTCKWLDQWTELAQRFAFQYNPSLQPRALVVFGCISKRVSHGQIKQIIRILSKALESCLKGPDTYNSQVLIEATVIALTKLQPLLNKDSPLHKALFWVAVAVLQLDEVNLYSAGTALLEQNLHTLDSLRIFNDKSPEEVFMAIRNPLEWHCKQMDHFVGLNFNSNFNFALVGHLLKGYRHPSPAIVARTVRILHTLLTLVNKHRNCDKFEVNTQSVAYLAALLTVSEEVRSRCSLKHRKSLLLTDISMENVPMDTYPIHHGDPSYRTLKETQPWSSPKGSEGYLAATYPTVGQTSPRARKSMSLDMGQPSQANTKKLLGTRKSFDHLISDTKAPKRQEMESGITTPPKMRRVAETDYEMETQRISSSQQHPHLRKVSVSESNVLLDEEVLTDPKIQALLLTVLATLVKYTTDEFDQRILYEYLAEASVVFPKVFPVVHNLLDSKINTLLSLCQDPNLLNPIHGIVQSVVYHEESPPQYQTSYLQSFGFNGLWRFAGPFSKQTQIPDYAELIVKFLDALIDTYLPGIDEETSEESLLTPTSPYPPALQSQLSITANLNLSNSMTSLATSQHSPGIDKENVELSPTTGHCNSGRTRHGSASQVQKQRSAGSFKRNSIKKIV


Experiments:
[1] = molecular target: T1, neurofibromin EF fragment (1821–2818) (human); test: SEC; equimolar mixtures of two purified NF1 fragments on an analytical SEC column, fractions analysed by SDS-PAGE; both purified
[2] = molecular target: T1, neurofibromin EF fragment (1821–2818) (human); test: SEC-MALS; single purified proteins; Superose-6 Increase or Superdex S-200 10/300 GL, Wyatt Heleos and Optilab T-Rex; BSA as standard; both purified

binding [1]	binding [2]	Binder
no binding	–	neurofibromin D domain (1541–1820) (domain or fragment, UniProt P21359-2 1541-1820) LNLTSSKFEEFMTRHQVHEKEEFKALKTLSIFYQAGTSKAGNPIFYYVARRFKTGQINGDLLIYHVLLTLKPYYAKPYEIVVDLTHTGPSNRFKTDFLSKWFVVFPGFAYDNVSAVYIYNCNSWVREYTKYHERLLTGLKGSKRLVFIDCPGKLAEHIEHEQQKLPAATLALEEDLKVFHNALKLAHKDTKVSIKVGSTAVQVTSAERTKVLGQSVFLNDIYYASEIEEICLVDENQFTLTIANQGTPLTFMHQECEAIVQSIIHIRTRWELSQPDSIPQ
–	binds weakly	neurofibromin EF fragment (1821–2818) (domain or fragment, UniProt P21359-2 1821-2818) HTKIRPKDVPGTLLNIALLNLGSSDPSLRSAAYNLLCALTCTFNLKIEGQLLETSGLCIPANNTLFIVSISKTLAANEPHLTLEFLEECISGFSKSSIELKHLCLEYMTPWLSNLVRFCKHNDDAKRQRVTAILDKLITMTINEKQMYPSIQAKIWGSLGQITDLLDVVLDSFIKTSATGGLGSIKAEVMADTAVALASGNVKLVSSKVIGRMCKIIDKTCLSPTPTLEQHLMWDDIAILARYMLMLSFNNSLDVAAHLPYLFHVVTFLVATGPLSLRASTHGLVINIIHSLCTCSQLHFSEETKQVLRLSLTEFSLPKFYLLFGISKVKSAAVIAFRSSYRDRSFSPGSYERETFALTSLETVTEALLEIMEACMRDIPTCKWLDQWTELAQRFAFQYNPSLQPRALVVFGCISKRVSHGQIKQIIRILSKALESCLKGPDTYNSQVLIEATVIALTKLQPLLNKDSPLHKALFWVAVAVLQLDEVNLYSAGTALLEQNLHTLDSLRIFNDKSPEEVFMAIRNPLEWHCKQMDHFVGLNFNSNFNFALVGHLLKGYRHPSPAIVARTVRILHTLLTLVNKHRNCDKFEVNTQSVAYLAALLTVSEEVRSRCSLKHRKSLLLTDISMENVPMDTYPIHHGDPSYRTLKETQPWSSPKGSEGYLAATYPTVGQTSPRARKSMSLDMGQPSQANTKKLLGTRKSFDHLISDTKAPKRQEMESGITTPPKMRRVAETDYEMETQRISSSQQHPHLRKVSVSESNVLLDEEVLTDPKIQALLLTVLATLVKYTTDEFDQRILYEYLAEASVVFPKVFPVVHNLLDSKINTLLSLCQDPNLLNPIHGIVQSVVYHEESPPQYQTSYLQSFGFNGLWRFAGPFSKQTQIPDYAELIVKFLDALIDTYLPGIDEETSEESLLTPTSPYPPALQSQLSITANLNLSNSMTSLATSQHSPGIDKENVELSPTTGHCNSGRTRHGSASQVQKQRSAGSFKRNSIKKIV
